Test results from PubChem BioAssay (NCI).
Values joined by “and” are separate entries in the source; they are usually repeats but may differ in a detail not shown here. Equal values may be shown once.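 Assay format: 96-well plates, 48-hour exposure. The concentration for 50% growth inhibition is given as GI50. TGI denotes the concentration required for complete inhibition of growth.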

Tested on: NCI-H322M lung
Assay: growth of human tumour cells (NCI), 48 h

Structure (SMILES)	GI50	TGI
CCC(C(=O)[O-])C(=O)[O-].CCC(C(=O)[O-])C(=O)[O-].N.N.NCCCCCN.[Pt+4].[Pt+4]	> 100 µM	> 100 µM
FC(F)(F)c1ccc2c(c1)nc(Cc1ccccc1)n2C[C@@H]1CCCN2CCCCC12 (stereo partly specified)	–	33.5 µM
OC1C(O)C(O)C(O)C(O)C1O (stereo unspecified)	–	> 1000 µM
Cc1cc(N(CCC#N)CCC#N)ccc1/C=C(\NC(=O)/C=C/c1ccccc1)NC(=O)Nc1ccc(Cl)cc1	–	> 100 µM
CC(C)CCCC(C)[C@H]1CC[C@H]2[C@@H]3CC[C@H]4C[C@@H](CCC=C(c5cc(Cl)c(O)c(C(=O)OC(C)(C)C)c5)c5cc(Cl)c(O)c(C(=O)OC(C)(C)C)c5)CC[C@]4(C)[C@H]3CC[C@]12C (stereo partly specified)	–	> 50 µM
CCCCCCOc1ccc(NC2=C(Cl)C(=O)c3cccnc3C2=O)cc1	–	6.49 µM
CC(=O)Oc1ccn2nc(C)c(Br)c2c1Br	–	> 100 µM
COC(=O)NCCc1[nH]nc2c1C(=O)C=C(OC)C2=O	–	> 100 µM
CC1=C(C(=O)Nc2ccccc2C)C(c2ccc([N+](=O)[O-])cc2)C(C(=O)Nc2ccccc2C)=C(C)N1	–	> 100 µM
O=C(O)c1c(CC(Cc2ccc3c(c2)CCCC3)C(=O)O)ccc2c1CCCC2 (stereo unspecified)	–	> 100 µM
CS(=O)(=O)N1CCN(Cc2cc3nc(-c4cccc5[nH]ncc45)nc(N4CCOCC4)c3s2)CC1 (tested in a mixture with another compound)	0.209 µM	3.41 µM
CC(C)(C)OC(=O)C1=C(C(=O)OC(C)(C)C)SC2(S1)C(C(=O)OC(C)(C)C)=C(C(=O)OC(C)(C)C)Sc1c2ssc1=O	–	> 100 µM
COc1ccc(-c2cc(-c3ccc(Nc4ccnc5cc(C(F)(F)F)ccc45)cc3)[nH]c(=O)c2C#N)c2ccccc12	–	> 100 µM
C/C=C(/C)C(=O)O[C@@H]1c2c(C)coc2C[C@H]2CC[C@H](O)[C@H](C)[C@]21C	–	> 100 µM
C=C(CN(CC(=C)C(=O)c1ccccc1)C(C)(C)C)C(=O)c1ccccc1	–	> 74.3 µM
COc1nn(Cc2ccccc2F)c2ccc([N+](=O)[O-])cc12	–	> 100 µM
C/C=C(\C)C(=O)O[C@@H]1C(O)[C@H]2OC(COC(=O)CCC(=O)CCCCCC[C@H](CCCCC)O[C@@H]3OC(C)[C@H](OC(C)=O)C(O)[C@H]3O2)[C@H]1OC(=O)/C=C/c1ccccc1 (stereo partly specified)	0.282 µM	> 51.8 µM
O=C1CC(Br)c2c(Cl)sc(Cl)c21 (stereo unspecified)	–	28.9 µM
CN(C)CCNC(=O)c1cccc2cc3ccccc3nc12	2.93 µM	17.5 µM
COC(=O)C1OC(O[C@H]2CC[C@]3(C)[C@H]4CC=C5[C@@H]6CC(C)(C)CC[C@]6(C(=O)OC)[C@H](O)C[C@@]5(C)[C@]4(C)CC[C@H]3C2(C)C)C(O)C(O)C1O (stereo partly specified)	–	19.1 µM
N#Cc1c(=O)c2cc([N+](=O)[O-])ccc2n2c1[nH]c1ccccc12	–	> 80.9 µM
CCc1cccc(CC)c1NC(=S)NC(=O)c1ccc(Br)cc1	–	> 100 µM

Structure (SMILES)	GI50	TGI
CCCn1cnc2c(NN=O)ncnc21	–	> 100 µM
OCCCSc1ccccc1SCCCO	–	> 100 µM
COc1ccc(/C=C(/C(=O)N2CCCC2)c2cc(OC)c(OC)c(OC)c2)cc1N	5.98 µM	> 100 µM
COc1ccc2cc(C(=O)/C=C/c3cccc(Cl)c3Cl)ccc2c1	32.3 µM	> 100 µM
C=CC1OC(CCCOC(=O)C(C)(C)C)O[C@@H]1CC (stereo partly specified)	–	> 100 µM
Cn1c(N2CCCC2)c(C=O)c(=O)n(C)c1=O	–	> 100 µM
Nc1nc2c(ncn2CCOC(c2ccccc2)P(=O)(O)O)c(=O)[nH]1 (stereo unspecified)	–	> 100 µM
O=C(Oc1ccc([N+](=O)[O-])cc1)N1CCN(Cc2cccc(Oc3ccccc3)c2)CC1	> 100 µM	> 100 µM
Clc1ccc(OCc2nnc3sc(-c4ccc(-c5ccc(Cl)cc5Cl)o4)nn23)c(Cl)c1	–	50.4 µM
[Cl-].[Rh+3].c1ccc(-c2ccnc3c2ccc2c(-c4ccccc4)ccnc23)cc1.c1ccc(-c2ccnc3c2ccc2c(-c4ccccc4)ccnc23)cc1.c1ccc(-c2ccnc3c2ccc2c(-c4ccccc4)ccnc23)cc1	–	> 100 µM
O=C(CCCCCCCCC(=O)NN1C(=O)/C(=C\c2ccc(O)c(O)c2)SC1c1c(O)ccc2ccccc12)NN1C(=O)C(=Cc2ccc(O)c(O)c2)SC1c1c(O)ccc2ccccc12 (stereo unspecified)	–	96.8 µM
N#C/C(=C/C=C(\Cl)c1ccc(Cl)cc1)C(N)=O	2.52 µM	6.22 µM
C=C(CN1CCN(c2cccc(C(F)(F)F)c2)CC1)c1ccc(C(=O)Nc2ccccc2N)cc1	0.936 µM	12.3 µM
OC(c1cccs1)c1cc2ccccc2s1 (stereo unspecified)	–	> 10 µM
CC[N+](CC)=c1ccc2nc3c(cc(NCc4ccccc4)c4ccccc43)oc-2c1	0.215 µM	0.618 µM
Cc1ccc(N=C2CSc3nnc(-c4csc5c4CCCC5)n3N2)cc1	0.403 µM	> 50 µM
COC(=O)c1c2c(c(C)[n+]([O-])c1C)C(=O)C=C(NCc1cccc(OC)c1)C2=O	0.549 µM	1.76 µM
NC(=O)c1csc(C2C=CC(CO)O2)n1 (stereo unspecified)	–	> 100 µM
C#CC(O)/C=C/CCCCCCC#CC/C=C\CC#CCCCCCC/C=C/C(O)C#C (stereo unspecified)	–	15 µM
Oc1ccc(-c2nc3cc(C(F)(F)F)ccc3n2CC2CCCN3CCCCC23)cc1 (stereo unspecified)	–	27 µM
CCOC(=O)c1c(C)n(Cc2ccccc2)c2c1cc(O)c1[nH]c3c(c12)CCCC3	–	32.8 µM
O=C1c2cccnc2-c2nc(/C=C/c3ccccc3)cc3c2c1nc1ccccc13	2.15 µM	5.41 µM

Structure (SMILES)	GI50	TGI
Cc1cccc2sc(NC(=O)c3cc([N+](=O)[O-])ccc3Cl)nc12	–	> 70 µM
CN(C)c1ccc(/C=C2\CNC/C(=C\c3ccc(N(C)C)cc3)C2=O)cc1	–	80.4 µM
Nc1ccc(C#Cc2cncnc2Nc2ccc(OCc3cccc(F)c3)c(Cl)c2)cc1	5.94 µM	> 25 µM
Oc1[nH]c2ccccc2c1N=NC1=NCCCCN1	–	> 100 µM
C[n+]1c2ccccc2c(CNC(CCC(N)=O)C(=O)O)c2ccccc21 (stereo unspecified)	–	15.6 µM
C=C(CNCCc1ccc(O)cc1)[C@@H]1CC[C@]2(CO)CC[C@]3(C)[C@H](CC[C@@H]4[C@@]5(C)CCC(=O)C(C)(C)[C@@H]5CC[C@]43C)[C@@H]12	1.61 µM	2.99 µM
CC1C=C(OC(=O)c2ccccc2)C(=O)C(n2cc(F)c(=O)n(C(=O)c3ccccc3)c2=O)O1 (stereo unspecified)	–	> 100 µM
O=C1c2ccccc2S(=O)(=O)N1CSC(=S)N1CCCC1	> 100 µM	> 100 µM
CCN1/C(=C/c2ccc3ccccc3[n+]2CC)C=Cc2ccccc21	–	14.6 µM
CN1N=C2c3ccccc3CC[C@H]2C1c1ccccc1 (stereo partly specified)	–	> 100 µM
OCCSCCCSCCO	–	> 100 µM
O=C(O)Cc1ccc(N2N=C(c3ccccc3)CC2=O)cc1	–	> 100 µM
NC(=O)N/N=C(\Cc1nc2ccc(C(=O)c3ccccc3)cc2[nH]c1=O)C(=O)Nc1ccc(Br)cc1	–	> 100 µM
c1ccc2nc3[nH]c4ccccc4c3cc2c1	–	5.16 µM
COC(=O)C(NC(=O)CNC(=O)CSc1nnc(COc2ccc(Cl)cc2)n1-c1ccccc1)C(C)C (stereo unspecified)	–	36.6 µM
O=C1C=CC(=O)C1(Br)Br	–	29.8 µM
CC1(C)OCC2OC3([C@H](O)CCO)OC(C)(C)OC3C2O1 (stereo partly specified)	–	> 100 µM
COc1ccc(NC(=O)C(=O)NNC(=O)c2sc(NNC(C)=O)nc2C)c([N+](=O)[O-])c1	–	> 100 µM
COc1ccc(C(=O)N2CCN(c3ccc4c(c3)OCC(=O)N4)CC2)cc1	–	> 100 µM
O=[N+]([O-])c1ccc(/C=C/c2ccc(N=Nc3ccc(/C=C/c4ccc([N+](=O)[O-])cc4S(=O)(=O)O)c(S(=O)(=O)O)c3)cc2S(=O)(=O)O)c(S(=O)(=O)O)c1	–	> 100 µM
N#CC1C(=N)Cc2ccccc2-c2ccccc21 (stereo unspecified)	15.6 µM	> 100 µM
CCOc1ccccc1NC(=O)CCc1nnc2s/c(=C\CCc3ccccc3)c(=O)n12	–	> 100 µM

Structure (SMILES)	GI50	TGI
COC1(OC)N=C(N)C2(C#N)C(C)CC(=O)N(N(C)C)C12C#N (stereo unspecified)	–	> 100 µM
CN1CCN(c2ccc(-c3cnc4c(-c5csc6ccccc56)cnn4c3)cc2)CC1	7.33 µM	> 15 µM
COc1cc(/C=C/C(=O)c2cc(F)c(Cl)cc2Cl)cc(OC)c1OC	19.1 µM	> 100 µM
Cn1ccc(=Nc2ccc(NC(=O)c3ccc(N=c4ccn(C)c5ccc([N+](=O)[O-])cc45)cc3)cc2)cc1	> 100 µM	> 100 µM
COC(=O)[C@]12CC[C@@H](C)[C@H](C)[C@@H]1C1=CC[C@@H]3[C@@]4(C)C(C=O)=C[C@@](C)(COC(C)=O)[C@@H]4[C@H](O)C[C@@]3(C)[C@]1(C)CC2	3.88 µM	16.6 µM
O=C1/C(=C/c2ccccc2)SC(=Nc2ccccc2)N1Nc1ccccc1	19.2 µM	> 100 µM
CC[C@@]1(O)C(=O)OCc2c1cc1n(c2=O)Cc2cc3cc(OC)ccc3nc2-1	0.0203 µM	0.543 µM and 0.486 µM
COc1ccc2nc(NCCCNCCO)c3sc4ccc(F)cc4c(=O)c3c2c1	1.64 µM	3 µM
N#Cc1c[nH]n2ccnc12	–	> 100 µM
CCCCCCCCOc1ccc(/C=N/Nc2cc(C)nc3ccc(Cl)cc23)cc1	1.79 µM	3.21 µM
CC(SC(=S)N1CCCCC1)C(=O)Nc1nnc(-c2ccc(Cl)cc2)o1 (stereo unspecified)	–	> 100 µM
Cc1ccc(S(=O)(=O)N2CCC3(C(/C=C/c4ccccc4)=Nc4ccccc43)C2c2ccccc2)cc1 (stereo unspecified)	–	> 100 µM
Oc1cc(Cl)cc2cc(Br)cnc12	–	> 100 µM
O=C([O-])c1ccc2c(c1)-c1nc-2nc2[n-]c(nc3nc(nc4[n-]c(n1)c1ccc(C(=O)[O-])cc41)-c1cc(C(=O)[O-])ccc1-3)c1ccc(C(=O)[O-])cc21.[Fe+2]	> 50 µM	> 50 µM
CCOC(=O)/C=C1\SC(=Nc2ccc(C#N)cc2)N(CCN2C(=O)/C(=C/C(=O)OCC)SC2=Nc2ccc(C#N)cc2)C1=O	6.4 µM	19.8 µM
Cc1ccc(NC(=O)CC(=O)n2nc(-c3ccccc3)c(N=Nc3ccc(Cl)cc3)c2-c2ccccc2)cc1	–	> 100 µM
Cn1c(-c2csc(-c3ccc(Cl)cc3)n2)n[nH]c1=S	–	> 100 µM
Nc1ccn([C@H]2C[C@@H](O)[C@@H](CO)S2)c(=O)n1	> 100 µM	> 100 µM
O=C(CC/C(C/C(=N/O)c1ccc(F)cc1)=N/O)N(Cc1ccccc1)Cc1ccccc1	–	> 100 µM
CCOC(=O)CCC(NC(=O)c1ccc(CNc2nc3cc(N)cc(N)c3nc2-c2ccccc2)cc1)C(=O)OCC (stereo unspecified)	–	> 100 µM
N=c1c2c3n(c4c(=O)n(-c5ccccc5)c(=S)n(c(=O)n1-c1ccccc1)c24)CCCCC3	–	> 100 µM
Cc1ccc(S(=O)(=O)N2CCSCCSCCN(S(=O)(=O)c3ccc(C)cc3)CCN(S(=O)(=O)c3ccc(C)cc3)CC2)cc1	–	> 100 µM
